# Measurements: the supplement of paper PMC8728848
# This is one part of the list.
# B1: SpnanA (Streptococcus pneumoniae), P62575 (protein)
# chain: MVIEKEDVETNASNGQRVDLSSELDKLKKLENATVHMEFKPDAKAPAFYNLFSVSSATKKDEYFTMAVYNNTATLEGRGSDGKQFYNNYNDAPLKVKPGQWNSVTFTVEKPTAELPKGRVRLYVNGVLSRTSLRSGNFIKDMPDVTHVQIGATKRANNTVWGSNLQIRNLTVYNRALTPEEVQKRS
# How the values were obtained:
# Experiment in all cases: glycan array binding signal (z-score within array); higher = stronger binding
# Settings in all cases: glycan notation: IUPAC condensed, linker removed
# Gal(b1-3)GlcNAc = molecular target: Gal(b1-3)GlcNAc
# In short: (§1)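 Arrays were curated from the Consortium for Functional Glycomics database, 3228 in total, and kept only where the protein sequence was available. Binding is expressed as a within-array Z-score. This score was averaged across arrays of the same protein sequence at different concentrations or buffers and across linkers, and negative values can be read as non-binding.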
# [1] = molecular target: Gal(b1-3)GlcNAc(a1-3)Gal(b1-4)GlcNAc
# In short: as §1
# [2] = molecular target: Gal(b1-3)GlcNAc(a1-6)Gal(b1-4)GlcNAc
# In short: as §1
# [3] = molecular target: Gal(b1-3)GlcNAc(b1-2)Man(a1-3)[Gal(b1-3)GlcNAc(b1-2)Man(a1-6)]Man(b1-4)GlcNAc(b1-4)GlcNAc
# In short: as §1
# [4] = molecular target: Gal(b1-3)GlcNAc(b1-2)Man(a1-3)[Gal(b1-3)GlcNAc(b1-2)Man(a1-6)]Man(b1-4)GlcNAc(b1-4)[Fuc(a1-6)]GlcNAc
# In short: as §1
# [5] = molecular target: Gal(b1-3)GlcNAc(b1-2)Man(a1-3)[GlcNAc(b1-4)][Gal(b1-3)GlcNAc(b1-2)Man(a1-6)]Man(b1-4)GlcNAc(b1-4)GlcNAc
# In short: as §1
# [6] = molecular target: Gal(b1-3)GlcNAc(b1-2)[Gal(b1-3)GlcNAc(b1-6)]Man(a1-6)[Gal(b1-3)GlcNAc(b1-2)Man(a1-3)]Man(b1-4)GlcNAc(b1-4)GlcNAc
# In short: as §1
# [7] = molecular target: Gal(b1-3)GlcNAc(b1-3)Gal(b1-3)GlcNAc
# In short: as §1
# [8] = molecular target: Gal(b1-3)GlcNAc(b1-3)Gal(b1-4)Glc
# In short: as §1
# [9] = molecular target: Gal(b1-3)GlcNAc(b1-3)Gal(b1-4)GlcNAc
# In short: as §1
# [10] = molecular target: Gal(b1-3)GlcNAc(b1-3)Gal(b1-4)GlcNAc(b1-6)[Gal(b1-3)GlcNAc(b1-3)]Gal(b1-4)Glc
# In short: as §1
# [11] = molecular target: Gal(b1-3)GlcNAc(b1-3)Gal(b1-4)[Fuc(a1-3)]GlcNAc(b1-6)[Gal(b1-3)GlcNAc(b1-3)]Gal(b1-4)Glc
# In short: as §1
# [12] = molecular target: Gal(b1-3)GlcNAc(b1-3)GalNAc
# In short: as §1
# [13] = molecular target: Gal(b1-3)GlcNAc(b1-6)Gal(b1-4)GlcNAc
# In short: as §1
# [14] = molecular target: Gal(b1-3)GlcNAc(b1-6)GalNAc
# In short: as §1
# Gal(b1-3)GlcNAc6S = molecular target: Gal(b1-3)GlcNAc6S
# In short: as §1
# [15] = molecular target: Gal(b1-3)[Fuc(a1-4)]GlcNAc
# In short: as §1
# [16] = molecular target: Gal(b1-3)[Fuc(a1-4)]GlcNAc(b1-2)Man(a1-3)[Gal(b1-3)[Fuc(a1-4)]GlcNAc(b1-2)Man(a1-6)]Man(b1-4)GlcNAc(b1-4)GlcNAc
# In short: as §1
# [17] = molecular target: Gal(b1-3)[Fuc(a1-4)]GlcNAc(b1-2)Man(a1-3)[Gal(b1-3)[Fuc(a1-4)]GlcNAc(b1-2)Man(a1-6)]Man(b1-4)GlcNAc(b1-4)[Fuc(a1-6)]GlcNAc
# In short: as §1
# [18] = molecular target: Gal(b1-3)[Fuc(a1-4)]GlcNAc(b1-3)Gal(b1-3)[Fuc(a1-4)]GlcNAc
# In short: as §1
# [19] = molecular target: Gal(b1-3)[Fuc(a1-4)]GlcNAc(b1-3)Gal(b1-4)GlcNAc
# In short: as §1
# [20] = molecular target: Gal(b1-3)[Fuc(a1-4)]GlcNAc(b1-3)Gal(b1-4)[Fuc(a1-3)]GlcNAc
# In short: as §1
# [21] = molecular target: Gal(b1-3)[Fuc(a1-4)]GlcNAc(b1-6)GalNAc
# In short: as §1
# [22] = molecular target: Gal(b1-3)[GlcNAc(b1-6)]GalNAc
# In short: as §1
# [23] = molecular target: Gal(b1-3)[Neu5Ac(a2-6)]GalNAc
# In short: as §1
# [24] = molecular target: Gal(b1-3)[Neu5Ac(a2-6)]GlcNAc(b1-6)Gal(b1-4)Glc
# In short: as §1
# [25] = molecular target: Gal(b1-3)[Neu5Ac(b2-6)]GalNAc
# In short: as §1
# Gal(b1-4)Gal = molecular target: Gal(b1-4)Gal
# In short: as §1
# [26] = molecular target: Gal(b1-4)GalNAc(a1-3)[Fuc(a1-2)]Gal(b1-4)GlcNAc
# In short: as §1
# [27] = molecular target: Gal(b1-4)GalNAc(b1-3)[Fuc(a1-2)]Gal(b1-4)GlcNAc
# In short: as §1
# Gal(b1-4)Glc = molecular target: Gal(b1-4)Glc
# In short: as §1
# Gal(b1-4)Glc6S = molecular target: Gal(b1-4)Glc6S
# In short: as §1
# Gal(b1-4)GlcNAc = molecular target: Gal(b1-4)GlcNAc
# In short: as §1
# [28] = molecular target: Gal(b1-4)GlcNAc(a1-6)Gal(b1-4)GlcNAc
# In short: as §1
# Gal(b1-4)GlcNAc(b1-2)Man = molecular target: Gal(b1-4)GlcNAc(b1-2)Man
# In short: as §1
# [29] = molecular target: Gal(b1-4)GlcNAc(b1-2)Man(a1-3)Man(b1-4)GlcNAc(b1-4)GlcNAc
# In short: as §1
# [30] = molecular target: Gal(b1-4)GlcNAc(b1-2)Man(a1-3)[Gal(b1-4)GlcNAc(b1-2)Man(a1-6)]Man(b1-4)GlcNAc(b1-4)GlcNAc
# In short: as §1
# [31] = molecular target: Gal(b1-4)GlcNAc(b1-2)Man(a1-3)[Gal(b1-4)GlcNAc(b1-2)Man(a1-6)]Man(b1-4)GlcNAc(b1-4)[Fuc(a1-6)]GlcNAc
# In short: as §1
# [32] = molecular target: Gal(b1-4)GlcNAc(b1-2)Man(a1-3)[Gal(b1-4)GlcNAc(b1-2)][GlcNAc(b1-4)]Man(b1-4)GlcNAc(b1-4)GlcNAc
# In short: as §1
# [33] = molecular target: Gal(b1-4)GlcNAc(b1-2)Man(a1-3)[GlcNAc(b1-2)Man(a1-6)]Man(b1-4)GlcNAc(b1-4)GlcNAc
# In short: as §1
# [34] = molecular target: Gal(b1-4)GlcNAc(b1-2)Man(a1-3)[Man(a1-6)]Man(b1-4)GlcNAc(b1-4)GlcNAc
# In short: as §1
# [35] = molecular target: Gal(b1-4)GlcNAc(b1-2)Man(a1-6)Man(b1-4)GlcNAc(b1-4)GlcNAc
# In short: as §1
# [36] = molecular target: Gal(b1-4)GlcNAc(b1-2)Man(a1-6)[GlcNAc(b1-2)Man(a1-3)]Man(b1-4)GlcNAc(b1-4)GlcNAc
# In short: as §1
# [37] = molecular target: Gal(b1-4)GlcNAc(b1-2)Man(a1-6)[Man(a1-3)]Man(b1-4)GlcNAc(b1-4)GlcNAc
# In short: as §1
# [38] = molecular target: Gal(b1-4)GlcNAc(b1-2)[Gal(b1-4)GlcNAc(b1-4)]Man(a1-3)[Gal(b1-4)GlcNAc(b1-2)Man(a1-6)]Man(b1-4)GlcNAc(b1-4)GlcNAc
# In short: as §1
binder,measurement,setting,value
B1,glycan array binding signal (z-score),Gal(b1-3)GlcNAc,-0.262
same,glycan array binding signal (z-score),[1],-0.311
same,glycan array binding signal (z-score),[2],-0.246
same,glycan array binding signal (z-score),[3],0.3
same,glycan array binding signal (z-score),[4],-0.204
same,glycan array binding signal (z-score),[5],-0.374
same,glycan array binding signal (z-score),[6],-0.168
same,glycan array binding signal (z-score),[7],-0.24
same,glycan array binding signal (z-score),[8],-0.195
same,glycan array binding signal (z-score),[9],-0.288
same,glycan array binding signal (z-score),[10],-0.283
same,glycan array binding signal (z-score),[11],-0.312
same,glycan array binding signal (z-score),[12],-0.237
same,glycan array binding signal (z-score),[13],-0.328
same,glycan array binding signal (z-score),[14],-0.323
same,glycan array binding signal (z-score),Gal(b1-3)GlcNAc6S,-0.247
same,glycan array binding signal (z-score),[15],-0.229
same,glycan array binding signal (z-score),[16],0.266
same,glycan array binding signal (z-score),[17],-0.15
same,glycan array binding signal (z-score),[18],-0.294
same,glycan array binding signal (z-score),[19],-0.337
same,glycan array binding signal (z-score),[20],-0.218
same,glycan array binding signal (z-score),[21],-0.169
same,glycan array binding signal (z-score),[22],-0.24
same,glycan array binding signal (z-score),[23],0.084
same,glycan array binding signal (z-score),[24],0.077
same,glycan array binding signal (z-score),[25],-0.233
same,glycan array binding signal (z-score),Gal(b1-4)Gal,-0.225
same,glycan array binding signal (z-score),[26],-0.262
same,glycan array binding signal (z-score),[27],-0.241
same,glycan array binding signal (z-score),Gal(b1-4)Glc,-0.297
same,glycan array binding signal (z-score),Gal(b1-4)Glc6S,-0.205
same,glycan array binding signal (z-score),Gal(b1-4)GlcNAc,-0.336
same,glycan array binding signal (z-score),[28],-0.182
same,glycan array binding signal (z-score),Gal(b1-4)GlcNAc(b1-2)Man,-0.324
same,glycan array binding signal (z-score),[29],-0.157
same,glycan array binding signal (z-score),[30],-0.206
same,glycan array binding signal (z-score),[31],-0.044
same,glycan array binding signal (z-score),[32],-0.288
same,glycan array binding signal (z-score),[33],-0.255
same,glycan array binding signal (z-score),[34],0.687
same,glycan array binding signal (z-score),[35],-0.227
same,glycan array binding signal (z-score),[36],-0.241
same,glycan array binding signal (z-score),[37],-0.288
same,glycan array binding signal (z-score),[38],-0.266
